Data taken from the supplement of paper PMC10369915.
This is one part of the list. Cut-off read from the data, not from the text of the source: active = 3.2 or more and inactive = the rest. The signal is at background level for most entries.

Columns and labels:
Assay in all cases: enrichment score (SH2-bound / input frequency) (ratio); bacterial display of known human phosphotyrosine sites (pTyr-Var adds point mutants) read by sequencing; higher = stronger binding; tyrosines were phosphorylated by kinases first
Details in all cases: peptide library: pTyr-Var
[1] = molecular target: SHP2 C-SH2 domain E139D
[2] = molecular target: SHP2 C-SH2 domain wild-type
[3] = molecular target: SHP2 N-SH2 domain L43F
[4] = molecular target: SHP2 N-SH2 domain T42A
[5] = molecular target: SHP2 N-SH2 domain T52S
[6] = molecular target: SHP2 N-SH2 domain wild-type
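Note: displayed peptides selected on beads carrying the immobilized SH2 domain, with library peptides lacking any tyrosine serving as negative controls.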

Binder	enrichment score [1]	enrichment score [2]	enrichment score [3]	enrichment score [4]	enrichment score [5]	enrichment score [6]
GPIIRYDLGGA [CYP11B1_Y81_F79I]	inactive: 0.899	inactive: 1.13	inactive: 0.984	inactive: 0.763	inactive: 0.974	inactive: 1.01
PQGVRYTYTID [DCX_Y103_I104T]	inactive: 0.888	inactive: 1.76	inactive: 0.882	inactive: 1.95	inactive: 1.04	inactive: 0.877
PQAVRYIFTID [DCX_Y103_G100A_YF]	inactive: 1.86	inactive: 1.89	inactive: 1.67	inactive: 2.31	inactive: 2.16	inactive: 1.95
PQGVRYIFTID [DCX_Y103_YF]	inactive: 2.45	inactive: 2.48	inactive: 1.71	inactive: 2.35	inactive: 2.02	inactive: 2.52
LSNPAYRLLLA [DDR1_Y513]	inactive: 0.745	inactive: 0.643	inactive: 0.894	inactive: 0.7	inactive: 0.961	inactive: 0.774
CASQLYPRHKH [DCTN4_Y263]	inactive: 2.02	inactive: 2.07	inactive: 1.92	inactive: 1.74	inactive: 2.24	inactive: 2.25
AVRFIYTIDGS [DCX_Y105_G100A_YF]	inactive: 1.09	inactive: 1.53	inactive: 1.5	inactive: 1.08	inactive: 1.22	inactive: 1.39
NRVEIYEKTVE [CYFIP1_Y108]	inactive: 0.982	inactive: 0.993	inactive: 0.921	inactive: 0.712	inactive: 0.69	inactive: 0.967
SFHCSYSEIKD [DCLRE1C_Y322_S320C]	inactive: 0.839	inactive: 1.47	inactive: 0.782	inactive: 0.789	inactive: 0.778	inactive: 0.924
PQGVSYIYTID [DCX_Y103_R102S]	inactive: 1.58	active: 4.5	inactive: 1.18	inactive: 2.65	inactive: 0.871	inactive: 1.12
AARVSYRLASG [DCHS1_Y1582]	inactive: 0.518	inactive: 0.664	inactive: 0.712	inactive: 0.441	inactive: 0.566	inactive: 0.84
QDDTVYMGKVI [DCTN1_Y1244_T1249I]	inactive: 0.63	inactive: 0.81	inactive: 1.57	inactive: 0.881	inactive: 0.859	inactive: 1.65
HNGDRYFKGIV [DCX_Y64_R59H]	inactive: 0.777	inactive: 0.624	inactive: 0.694	inactive: 0.602	inactive: 0.659	inactive: 0.887
PQGVRYIYTID [DCX_Y103]	inactive: 1.76	active: 4.56	inactive: 1.41	inactive: 2.71	inactive: 1.27	inactive: 1.12
KLASTYREAAT [DEAF1_Y483_H479L]	inactive: 0.648	inactive: 0.61	inactive: 0.717	inactive: 0.376	inactive: 0.665	inactive: 0.635
EEGESDVCSSD [DCX_Y125_Y125D]	inactive: 0.397	inactive: 0.474	inactive: 0.365	inactive: 0.389	inactive: 0.377	inactive: 0.354
KRTFEYEAEKN [DENND2B_Y396_D399E]	inactive: 0.364	inactive: 0.381	inactive: 0.41	inactive: 0.496	inactive: 0.472	inactive: 0.513
FKGIVYAVSSD [DCX_Y70]	inactive: 0.958	inactive: 0.814	inactive: 1	inactive: 0.717	inactive: 0.852	inactive: 0.948
